Drawing on the supplement of paper PMC4604168 (melanoma cell lines), this text covers cell count for 26 compounds.

The other results are listed elsewhere or left out. Repeats are few or missing, and single values can be far off.
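Also: cell number obtained by counting DAPI-stained nuclei in high-throughput microscope images with image analysis software, screen run in 1,536-well plates.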

The test relates to MEL-HO. Kind of test: cell count relative to DMSO control; melanoma cells; higher = more viable cells. The settings on record: library dose: low library concentration; 72 h.
As for `CCN(CC)CCNC(=O)c1c(C)[nH]c(/C=C2\C(=O)Nc3ccc(F)cc32)c1C` [sunitinib] + Clc1ccc(Nc2nnc(Cc3ccncc3)c3ccccc23)cc1 [vatalanib] (first compound 0.4 µM, partner dose 2 µM), the cell count stood at 91.2%. The value for `COc1cc([C@@H]2c3cc4c(cc3[C@@H](O[C@@H]3O[C@@H]5CO[C@@H](C)O[C@H]5[C@H](O)[C@H]3O)[C@H]3COC(=O)[C@H]23)OCO4)cc(OC)c1O` [etoposide] + Cn1c(Nc2ccc(C(F)(F)F)cc2)nc2cc(Oc3ccnc(-c4ncc(C(F)(F)F)[nH]4)c3)ccc21 [CHIR265] (first compound 0.02 µM, partner dose 0.08 µM) was 74.7%; that for `CCN(CC)CCNC(=O)c1c(C)[nH]c(/C=C2\C(=O)Nc3ccc(F)cc32)c1C` [sunitinib] + O=C(O)[C@@H]1[O][Sb](=[O])([O][Sb]2(=[O])[O][C@H]([C@H](O)CO)[C@H](O)[C@H](C(=O)O)[O]2)[O][C@H]([C@H](O)CO)[C@@H]1O [stibogluconate] (first compound 0.4 µM, partner dose 2 µM) was 109%. For `COc1cc([C@@H]2c3cc4c(cc3[C@@H](O[C@@H]3O[C@@H]5CO[C@@H](C)O[C@H]5[C@H](O)[C@H]3O)[C@H]3COC(=O)[C@H]23)OCO4)cc(OC)c1O` [etoposide] + Cc1nc(Nc2ncc(C(=O)Nc3c(C)cccc3Cl)s2)cc(N2CCN(CCO)CC2)n1 [dasatanib] (first compound 0.02 µM, partner dose 0.004 µM), the cell count is 90.1%. The compound `COc1cc([C@@H]2c3cc4c(cc3[C@@H](O[C@@H]3O[C@@H]5CO[C@@H](C)O[C@H]5[C@H](O)[C@H]3O)[C@H]3COC(=O)[C@H]23)OCO4)cc(OC)c1O` [etoposide] + O=c1[nH]nc(Sc2ncc([N+](=O)[O-])s2)n1-c1ccc2c(c1)OCCO2 [BI78D3] (first compound 0.02 µM, partner dose 0.2 µM) displayed a cell count of 88.4%. As to `Cn1cnc2c(F)c(Nc3ccc(Br)cc3Cl)c(C(=O)NOCCO)cc21` [selumetinib] + Nc1nc(F)nc2c1ncn2[C@@H]1O[C@H](CO)[C@@H](O)[C@@H]1O [fludarabine] (first compound 0.015 µM, partner dose 0.2 µM), the cell count was determined as 102%. Compound `Cn1cnc2c(F)c(Nc3ccc(Br)cc3Cl)c(C(=O)NOCCO)cc21` [selumetinib] + Clc1ccc(Nc2nnc(Cc3ccncc3)c3ccccc23)cc1 [vatalanib] (first compound 0.015 µM, partner dose 2 µM) came in with a cell count of 83.7%.

With `CCN(CC)CCNC(=O)c1c(C)[nH]c(/C=C2\C(=O)Nc3ccc(F)cc32)c1C` [sunitinib] + O=C(O)c1ccc2c(c1)nc(Nc1cccc(Cl)c1)c1ccncc12 [CX4945] (first compound 0.4 µM, partner dose 0.4 µM), the cell count worked out at 90.4%. `C[C@]1(O)C[C@@H](c2nc(-c3ccc4ccc(-c5ccccc5)nc4c3)c3c(N)nccn32)C1` + NC1(c2ccc(-c3nc4ccn5c(=O)[nH]nc5c4cc3-c3ccccc3)cc2)CCC1 [MK2206] (first compound 0.4 µM, partner dose 0.4 µM) had a cell count of 90.2%.

`C[C@]1(O)C[C@@H](c2nc(-c3ccc4ccc(-c5ccccc5)nc4c3)c3c(N)nccn32)C1` + CCCS(=O)(=O)Nc1ccc(F)c(C(=O)c2c[nH]c3ncc(Cl)cc23)c1F [PLX4720] (first compound 0.4 µM, partner dose 0.08 µM) came in with a cell count of 80%. On to `C[C@]1(O)C[C@@H](c2nc(-c3ccc4ccc(-c5ccccc5)nc4c3)c3c(N)nccn32)C1` + C[C@]1(c2nc3c(C(N)=O)cccc3[nH]2)CCCN1 [Veliparib] (first compound 0.4 µM, partner dose 1.4 µM), for which the cell count was 107%. The value for `COc1cc([C@@H]2c3cc4c(cc3[C@@H](O[C@@H]3O[C@@H]5CO[C@@H](C)O[C@H]5[C@H](O)[C@H]3O)[C@H]3COC(=O)[C@H]23)OCO4)cc(OC)c1O` [etoposide] + CN(c1ncccc1CNc1nc(Nc2ccc3c(c2)CC(=O)N3)ncc1C(F)(F)F)S(C)(=O)=O [PF562271] (first compound 0.02 µM, partner dose 0.08 µM) was 90.2%; that for `C[C@]1(O)C[C@@H](c2nc(-c3ccc4ccc(-c5ccccc5)nc4c3)c3c(N)nccn32)C1` + Clc1ccc(Nc2nnc(Cc3ccncc3)c3ccccc23)cc1 [vatalanib] (first compound 0.4 µM, partner dose 2 µM) was 92.6%; that for `COc1cc([C@@H]2c3cc4c(cc3[C@@H](O[C@@H]3O[C@@H]5CO[C@@H](C)O[C@H]5[C@H](O)[C@H]3O)[C@H]3COC(=O)[C@H]23)OCO4)cc(OC)c1O` [etoposide] + O=C(O)[C@@H]1[O][Sb](=[O])([O][Sb]2(=[O])[O][C@H]([C@H](O)CO)[C@H](O)[C@H](C(=O)O)[O]2)[O][C@H]([C@H](O)CO)[C@@H]1O [stibogluconate] (first compound 0.02 µM, partner dose 2 µM) was 95.2%. The value for `CCN(CC)CCNC(=O)c1c(C)[nH]c(/C=C2\C(=O)Nc3ccc(F)cc32)c1C` [sunitinib] + Cn1c(Nc2ccc(C(F)(F)F)cc2)nc2cc(Oc3ccnc(-c4ncc(C(F)(F)F)[nH]4)c3)ccc21 [CHIR265] (first compound 0.4 µM, partner dose 0.08 µM) was 98.6%; that for `CCN(CC)CCNC(=O)c1c(C)[nH]c(/C=C2\C(=O)Nc3ccc(F)cc32)c1C` [sunitinib] + CNC(=O)c1cc(Oc2ccc(NC(=O)Nc3ccc(Cl)c(C(F)(F)F)c3)cc2)ccn1 [sorafenib] (first compound 0.4 µM, partner dose 0.4 µM) was 99.1%.

`C[C@]1(O)C[C@@H](c2nc(-c3ccc4ccc(-c5ccccc5)nc4c3)c3c(N)nccn32)C1` + C=C(c1ccc(C(=O)O)cc1)c1cc2c(cc1C)C(C)(C)CCC2(C)C [Bexarotene] (first compound 0.4 µM, partner dose 2 µM) had a cell count of 99.3%.

`CCN(CC)CCNC(=O)c1c(C)[nH]c(/C=C2\C(=O)Nc3ccc(F)cc32)c1C` [sunitinib] + CN(c1ncccc1CNc1nc(Nc2ccc3c(c2)CC(=O)N3)ncc1C(F)(F)F)S(C)(=O)=O [PF562271] (first compound 0.4 µM, partner dose 0.08 µM) returned a cell count of 107%. The value for `CCN(CC)CCNC(=O)c1c(C)[nH]c(/C=C2\C(=O)Nc3ccc(F)cc32)c1C` [sunitinib] + NC1(c2ccc(-c3nc4ccn5c(=O)[nH]nc5c4cc3-c3ccccc3)cc2)CCC1 [MK2206] (first compound 0.4 µM, partner dose 0.4 µM) was 87.1%; that for `Cn1cnc2c(F)c(Nc3ccc(Br)cc3Cl)c(C(=O)NOCCO)cc21` [selumetinib] + CNC(=O)c1cc(Oc2ccc(NC(=O)Nc3ccc(Cl)c(C(F)(F)F)c3)cc2)ccn1 [sorafenib] (first compound 0.015 µM, partner dose 0.4 µM) was 97.6%; that for `Cn1cnc2c(F)c(Nc3ccc(Br)cc3Cl)c(C(=O)NOCCO)cc21` [selumetinib] + Cc1cc(Nc2cc(N3CCN(C)CC3)nc(/C=C/c3ccccc3)n2)n[nH]1 [ENMD2076] (first compound 0.015 µM, partner dose 0.04 µM) was 89.4%.

Regarding `COc1cc([C@@H]2c3cc4c(cc3[C@@H](O[C@@H]3O[C@@H]5CO[C@@H](C)O[C@H]5[C@H](O)[C@H]3O)[C@H]3COC(=O)[C@H]23)OCO4)cc(OC)c1O` [etoposide] + Nc1nc(F)nc2c1ncn2[C@@H]1O[C@H](CO)[C@@H](O)[C@@H]1O [fludarabine] (first compound 0.02 µM, partner dose 0.2 µM), the cell count was 97.8%. The value for `COc1cc([C@@H]2c3cc4c(cc3[C@@H](O[C@@H]3O[C@@H]5CO[C@@H](C)O[C@H]5[C@H](O)[C@H]3O)[C@H]3COC(=O)[C@H]23)OCO4)cc(OC)c1O` [etoposide] + Cn1sc(=O)n(Cc2ccccc2)c1=O [TDZD-8] (first compound 0.02 µM, partner dose 0.4 µM) was 103%; that for `Cn1cnc2c(F)c(Nc3ccc(Br)cc3Cl)c(C(=O)NOCCO)cc21` [selumetinib] + CO[C@H]1C[C@@H]2CC[C@@H](C)[C@@](O)(O2)C(=O)C(=O)N2CCCC[C@H]2C(=O)O[C@H]([C@H](C)C[C@@H]2CC[C@@H](OCCO)[C@H](OC)C2)CC(=O)[C@H](C)/C=C(\C)[C@@H](O)[C@@H](OC)C(=O)[C@H](C)C[C@H](C)/C=C/C=C/C=C/1C [everolimus] (first compound 0.015 µM, partner dose 0.02 µM) was 68.6%. With `Cn1cnc2c(F)c(Nc3ccc(Br)cc3Cl)c(C(=O)NOCCO)cc21` [selumetinib] + COc1ccc(C2=N[C@@H](c3ccc(Cl)cc3)[C@@H](c3ccc(Cl)cc3)N2C(=O)N2CCNC(=O)C2)c(OC(C)C)c1 [Nutlin-3] (first compound 0.015 µM, partner dose 0.1 µM), the cell count was found to be 108%.

Consider `C[C@]1(O)C[C@@H](c2nc(-c3ccc4ccc(-c5ccccc5)nc4c3)c3c(N)nccn32)C1` + CN(c1ncccc1CNc1nc(Nc2ccc3c(c2)CC(=O)N3)ncc1C(F)(F)F)S(C)(=O)=O [PF562271] (first compound 0.4 µM, partner dose 0.08 µM), for which the cell count turned out to be 93.6%.
